The campaign covered roughly 310,000 compounds. About 2,200 (0.71%) showed an effect of 50% or more. Effects have a minus sign here. The list shows a part of the results.
What follows are molecules tested against human ether-à-go-go-related gene (hERG) potassium channel (human, UniProt Q12809) (assay: primary screen, population patch clamp on CHO cells stably expressing hERG).
Sequence of human ether-à-go-go-related gene (hERG) potassium channel (Q12809 whole entry, looked up): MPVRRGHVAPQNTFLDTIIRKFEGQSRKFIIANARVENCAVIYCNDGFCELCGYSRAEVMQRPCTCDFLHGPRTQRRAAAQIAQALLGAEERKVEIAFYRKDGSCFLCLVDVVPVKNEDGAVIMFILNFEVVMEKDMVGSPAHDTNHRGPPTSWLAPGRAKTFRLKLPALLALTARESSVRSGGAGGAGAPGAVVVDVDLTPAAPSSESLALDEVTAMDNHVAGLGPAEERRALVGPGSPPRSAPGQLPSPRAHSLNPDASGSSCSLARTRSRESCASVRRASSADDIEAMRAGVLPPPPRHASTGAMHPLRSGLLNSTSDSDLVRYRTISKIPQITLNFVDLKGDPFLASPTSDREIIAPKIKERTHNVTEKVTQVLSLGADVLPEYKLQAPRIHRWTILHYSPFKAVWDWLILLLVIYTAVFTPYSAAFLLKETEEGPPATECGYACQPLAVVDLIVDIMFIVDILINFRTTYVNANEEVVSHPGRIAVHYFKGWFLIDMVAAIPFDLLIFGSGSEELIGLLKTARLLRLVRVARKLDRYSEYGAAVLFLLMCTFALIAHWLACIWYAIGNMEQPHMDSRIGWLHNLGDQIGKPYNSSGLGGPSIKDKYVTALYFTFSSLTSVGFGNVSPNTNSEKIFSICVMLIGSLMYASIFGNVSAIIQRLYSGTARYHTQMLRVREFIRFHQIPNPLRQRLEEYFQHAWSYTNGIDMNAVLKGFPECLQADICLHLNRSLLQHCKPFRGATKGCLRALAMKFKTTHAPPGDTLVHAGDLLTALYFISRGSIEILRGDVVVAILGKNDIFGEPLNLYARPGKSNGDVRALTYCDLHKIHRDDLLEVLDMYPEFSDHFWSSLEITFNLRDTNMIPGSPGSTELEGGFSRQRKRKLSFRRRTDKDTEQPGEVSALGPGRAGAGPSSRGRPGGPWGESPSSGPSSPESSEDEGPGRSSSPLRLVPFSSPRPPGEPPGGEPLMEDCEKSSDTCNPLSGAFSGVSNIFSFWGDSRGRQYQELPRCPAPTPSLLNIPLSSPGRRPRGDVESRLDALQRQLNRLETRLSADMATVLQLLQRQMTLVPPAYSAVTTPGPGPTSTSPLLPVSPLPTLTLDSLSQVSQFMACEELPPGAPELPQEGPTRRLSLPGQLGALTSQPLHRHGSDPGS

First: CCOC(=O)/C=C1\SCC(=O)N1CC(=O)NC(c1ccccc1)c1ccccc1
Second: CCC(NC(=O)c1ccc([N+](=O)[O-])cc1[N+](=O)[O-])c1ccccc1 (centres unmarked)
The “hERG current change (%, negative = inhibition) at 1uM” value of the first is higher: 5.26% for the first, -14.5% for the second.

First: C#CCOCCOCCOCCNc1nc(N2CCN(C(=O)CCCCCCCCCCNC(=O)[C@@H](CCC(=O)O)n3cc(CCCCCN)nn3)CC2)nc(N2CCN(C(=O)CCCCCCCCCCNC(=O)[C@H](CO)n3cc(CCCSC)nn3)CC2)n1
Second: Cc1cc(NC(=O)CCC(=O)N(Cc2ccccc2)C(C(=O)NC2CCCC2)c2ccco2)no1 (centres unmarked)
The “hERG current change (%, negative = inhibition) at 1uM” value of the first is higher: 2.2% for the first, 1.62% for the second.

Going from `CCCCNC(=O)OC1CCS(=O)(=O)C1` (centres unmarked) to `CCCCNC(=O)C12CCC(C)(C(=O)C1Br)C2(C)C` (centres unmarked), the “hERG current change (%, negative = inhibition) at 1uM” value falls from 10.9% to 4.09%.

Compared with `Cc1ccc(/C=N\NC(=O)c2cc(OCC(F)(F)F)ccc2OCC(F)(F)F)cc1`, `Cc1ccc(OCCOc2cccc(C=C3C(=O)NC(=O)NC3=O)c2)cc1` is higher in “hERG current change (%, negative = inhibition) at 1uM” value: 13.4% for the first, 17.3% for the second.

Compared with `COc1ccc2c(c1)C(=NO)c1cc(OC)ccc1-2`, `COc1cc(OC)cc(C(=O)N/N=C2/SCC(=O)N2Cc2ccco2)c1` is lower in “hERG current change (%, negative = inhibition) at 1uM” value: 9.68% for the first, 1.7% for the second.

Compared with `Cc1ccc(C(=O)Nc2ncnc3sc4c(c23)CCCCC4)cc1`, `Cc1ccc(CNC(=O)CCc2ccc(S(=O)(=O)NC3CCCCC3)cc2)cc1` is higher in “hERG current change (%, negative = inhibition) at 1uM” value: 2.44% for the first, 8.95% for the second.

Compared with `CCOC(=O)c1csc(-n2nc(C)cc2C(F)(F)F)n1`, `COC(=O)c1nc2nc(-c3cccs3)cc(C(F)(F)F)n2n1` is higher in “hERG current change (%, negative = inhibition) at 1uM” value: 5.13% for the first, 11.2% for the second.

First: COc1ccc(OC)c(C(c2c(O)c3ccccc3oc2=O)c2c(C)n(C)n(-c3ccccc3)c2=O)c1 (centres unmarked)
Second: COc1c(OC)c2[nH]c(=O)cc3c4ccccc4n(c1=O)c23
The “hERG current change (%, negative = inhibition) at 1uM” value of the first is higher: 7.07% for the first, -2.06% for the second.

First: C=CCNC(N)=S
Second: O=C(Cc1cccs1)NCc1ccco1
The “hERG current change (%, negative = inhibition) at 1uM” value of the first is higher: 17.7% for the first, 8.47% for the second.

Compared with `Cc1nc(N)sc1C(=O)N/N=C/c1cccnc1`, `CCOc1ccc(NC(=O)c2sc3nc(C)nc(N4CCOCC4)c3c2C)cc1` is lower in “hERG current change (%, negative = inhibition) at 1uM” value: 16.1% for the first, -5.28% for the second.

Going from `O=C(CN1CCCC1)Nc1ccc(Cl)cc1C(=O)c1ccccc1.O=C(O)C(=O)O` to `O=C(O)c1cc(S(=O)(=O)Nc2cccc3ccccc23)c(Cl)cc1Cl`, the “hERG current change (%, negative = inhibition) at 1uM” value rises from 0.588% to 22.6%.

First: CC(Cc1cccnc1)NC(=O)CCc1nnc(-c2ccccc2)o1 (centres unmarked)
Second: COc1ccccc1Cc1nc(-c2ccncc2)no1
The “hERG current change (%, negative = inhibition) at 1uM” value of the first is lower: 2.17% for the first, 10.3% for the second.

Going from `C[C@@H](CO)NC(=O)c1ccc2c3n(nc2c1)-c1ccccc1CO3` to `COc1cccc(-c2ocnc2C(=O)Nc2ccc3c(c2)CCC3)c1`, the “hERG current change (%, negative = inhibition) at 1uM” value falls from 9.04% to 6.33%.

Compared with `Cc1ccc(C)c(OCC(=O)N2CCOCC2)c1`, `CC(=O)N(C)c1ccc(NC(=O)N2CCOCC2)cc1` is lower in “hERG current change (%, negative = inhibition) at 1uM” value: 8.83% for the first, 8.06% for the second.

Compared with `CCOc1ccc2[nH]c(=O)c(CN(CCN3CCCC3)C(=S)Nc3ccccc3OC)cc2c1`, `CCOc1ccccc1NC(=O)CSc1nnc(-c2ccccc2Cl)n1Cc1ccco1` is higher in “hERG current change (%, negative = inhibition) at 1uM” value: -16.4% for the first, 2.2% for the second.

Going from `COc1ccccc1N1CCN(S(=O)(=O)c2cc(Br)cnc2N)CC1` to `Cc1sc2nc(CSc3ccccc3)nc(N3CCN(C)CC3)c2c1C`, the “hERG current change (%, negative = inhibition) at 1uM” value falls from 15.3% to -4.21%.

First: CCOC(=O)C1=C(COC(=O)/C=C/c2cccc(OC)c2OC)NC(=O)NC1C (centres unmarked)
Second: COc1cc(C(=O)OCC(=O)N(C)Cc2ccccc2)cc(OC)c1OC
The “hERG current change (%, negative = inhibition) at 1uM” value of the first is higher: 14% for the first, 12.5% for the second.

Going from `COc1ccc(CNC(=O)C2CC(=O)N(C3CCCCC3)C2)cc1` (centres unmarked) to `CCOc1ccc(N(CC(=O)NC2CCCCC2)S(=O)(=O)c2c(C)noc2C)cc1`, the “hERG current change (%, negative = inhibition) at 1uM” value falls from 7.44% to 4.49%.

Compared with `COc1ccc(Cl)cc1NC(=O)c1ccoc1C`, `CCN(CC)S(=O)(=O)c1cc(C(=O)Nc2cccnc2Cl)ccc1Cl` is higher in “hERG current change (%, negative = inhibition) at 1uM” value: 4.28% for the first, 8.2% for the second.

First: O=S1(=O)C=C(SCCN2CCCCC2)c2ccccc21
Second: O=C(c1cccc(Br)c1)N1CCCC1
The “hERG current change (%, negative = inhibition) at 1uM” value of the first is lower: -6.62% for the first, 8.55% for the second.

First: CN(CC(=O)Nc1ccc(Cl)c(C(F)(F)F)c1)C(=O)c1ccc2c(c1)NC(=O)CS2
Second: CCN(CC(=O)Nc1c(F)cccc1F)C(=O)c1ccc(-c2ccc(C(C)=O)cc2)o1
The “hERG current change (%, negative = inhibition) at 1uM” value of the first is lower: 0.635% for the first, 2.62% for the second.

Going from `N#Cc1ccccc1NC(=O)COc1c(Br)cc(Br)c2cccnc12` to `CCCN(CC(=O)Nc1ccccc1C)C(=O)c1ccc(-c2ccc(C(C)=O)cc2)o1`, the “hERG current change (%, negative = inhibition) at 1uM” value falls from 11.5% to 1.78%.

Going from `O=C(CSc1nnnn1-c1ccc2c(c1)OCCO2)OC1CCCCC1` to `CN(C)C(=O)CN1CCN(Cc2cn(C)nc2-c2ccc3c(c2)OCCO3)CC1`, the “hERG current change (%, negative = inhibition) at 1uM” value falls from 6.23% to 5.19%.

Compared with `CCCCNc1c2c(nc3c(-c4ccccc4)c(C)nn13)CCC2`, `CCOc1c2c(nc3ccc(Cl)cc13)CCC2` is higher in “hERG current change (%, negative = inhibition) at 1uM” value: 4.47% for the first, 9.86% for the second.

Compared with `C[N+](C)(C)CCN(Cc1ccc(Cl)cc1)c1ccccn1.[I-]`, `CCc1ccc(S(=O)(=O)Nc2c(C)nc3nc[nH]n3c2=O)cc1` is higher in “hERG current change (%, negative = inhibition) at 1uM” value: 6.09% for the first, 15.5% for the second.

First: CCOC(=O)c1[nH]c2cc3c(cc2c1NC(=O)CN1CCC(C)CC1)OCO3
Second: CCc1cc(=O)oc2cc(C)cc(OCC(=O)N3CCC[C@@H]3C(=O)O)c12
The “hERG current change (%, negative = inhibition) at 1uM” value of the first is lower: 2.44% for the first, 10.7% for the second.

First: CCC(=O)c1cn([C@H](CCC(OC)OC)CC(=O)OC(C)(C)C)cc1CC
Second: COC(=O)C1C(c2ccc(OC)c(OC)c2)NC(c2ccc(OC)c(OC)c2)C(C(=O)OC)S1(=O)=O (centres unmarked)
The “hERG current change (%, negative = inhibition) at 1uM” value of the first is lower: 12.6% for the first, 14.7% for the second.

Going from `CC1CCCC(C)N1C(=O)CSc1nnc(CSc2ncccn2)n1C` (centres unmarked) to `Cc1ccc(NC(=O)c2ccc(S(=O)(=O)N3CCC(C)CC3)cc2)cc1`, the “hERG current change (%, negative = inhibition) at 1uM” value falls from 11.5% to -6.71%.

Reference: PMC4336329 (PLoS ONE, 2015)
